# Experimental data: ChEMBL document CHEMBL1157539, “Thousands of chemical starting points for antimalarial lead identification” (Nature, 2010)
# Over roughly 13,000 compounds, “IFI” has its median near 4; the highest 2% begin near 17. The list shows a part of the results.
# Assay: GSK_TCMDC: Inhibition Frequency Index (IFI). The number of non-kinase HTS assays where a compound showed > 50 % inhibition, expressed as a percentage of the number of such assays in which the compound was tested (-0 is zero)
# Format: functional
row,Structure (SMILES),IFI [%]
1,COc1cc(Cc2cnc(N)nc2N)cc(OCCCCCC(=O)O)c1OC,-0
2,COc1ccccc1-n1ccnc1SCC(=O)Nc1cccc(C(F)(F)F)c1,5.93
3,O=C(Nc1ccc(-c2ccc(-c3nc4ccccc4[nH]3)s2)cc1)Nc1ccc(F)c(F)c1F,2.91
4,CC(=O)Nc1ccc(C(=O)NC2CCN(c3ccnc4cc(Cl)ccc34)C2)cc1 (centres undefined),-0
5,Cc1c(Cc2ccc(C(C)C)cc2)cnc2nc(N)nc(N)c12,1.55
6,N#Cc1cc(C(=O)c2cc(Br)ccc2O)cn(-c2cc(Cl)cc(Cl)c2)c1=O,20.6
7,Cc1cc(NC(=O)c2cccs2)ccc1OC1CCN(Cc2ccccc2)C1 (centres undefined),3.13
8,O=C(Nc1ccc(Cl)c(Cl)c1)N1CCc2cc3nccc(N4CCN5CCC[C@H]5C4)c3cc21,2.11
9,CN1CCN(c2ccc(CNc3ccc4ncc(-c5cccc(OC(F)(F)F)c5)n4n3)cc2)CC1,3.82
10,O=C(Nc1cccc(-c2ccc(-c3nc4cc(C(F)(F)F)ccc4[nH]3)cc2)c1)c1cccnc1,5.56
11,COCC(C)n1c(C)cc(C(=O)CSc2nnc(Nc3ccccc3)s2)c1C (centres undefined),0.73
12,CC(O)C1CCCCN1C(=O)c1cccc(-c2cccc(-c3nc4cc(C(F)(F)F)ccc4[nH]3)c2)c1 (centres undefined),8.41
13,OCCc1ccc(Nc2nccc(-c3nnc4ccccn34)n2)cc1,8.53
14,COc1ccc(CCn2c(=N)c(C(=O)NCc3ccccc3)cc3c(=O)n4ccccc4nc32)cc1,1.74
15,COC(=O)Cn1c(C2CCN(CC3CCC(NC(=O)/C=C/c4ccc(Cl)c(Cl)c4)CC3)CC2)nc2ccccc21 (centres undefined),2.14
16,O=C(Nc1cccc(Cl)c1)OC1CCCN2CCCCC12 (centres undefined),0
17,O=C(NCCCCCN1CCC(c2c[nH]c3ccccc23)CC1)c1ccc(-c2cccnc2)cc1,4.76
18,O=C(Nc1cccc(-c2cccc(F)c2)c1)C1CCN(Cc2ccc(O)cc2)CC1,2.38
19,CCCCc1ccc(-c2nc(NC(=O)Nc3[nH]c(-c4ccccc4)nc3C(=O)OCC)c(C(=O)OCC)[nH]2)cc1,3.73
20,CN(C)CCCN1CCN(Cc2ccc(-c3ccc(-c4nc5ccccc5[nH]4)s3)cc2)CC1,4.88
21,CCc1c(CCNCCCC(C)CCNCCc2ccc(OC)c(OC)c2CC)ccc(OC)c1OC (centres undefined),6.57
22,CCN(CCO)CCc1cccc(Nc2nccc(-c3c(-c4ccc(NC(=O)C(C)(C)C)cc4)nn4ccccc34)n2)c1,7.14
23,COc1cc(NC(=O)N2CCc3ccc(OCCC4CCCN4C)cc32)cc(C(F)(F)F)c1 (centres undefined),5.11

row,Structure (SMILES),IFI [%]
1,CCOc1ccc(NC(C)=O)c(O)c1,-0
2,Cc1ccc2cc(NC(=O)CCCCCCCON3C(N)=NC(N)=NC34CCCCC4)ccc2n1,0.78
3,CCNc1cc(C(=O)N[C@@H](Cc2ccccc2)[C@H](O)CNC(C)CCCC(C)C)cc(N2CCCS2(=O)=O)c1 (some centres undefined),0.72
4,CN1CCC(N2CCN(Cc3ccc(-c4ccc(-c5nc6cc(F)ccc6[nH]5)s4)cc3)CC2)CC1,8.33
5,CN1CCC(Oc2ccc(CN3CC[C@H](NC(=O)c4ccc(Cl)c(F)c4)C3)c3ccccc23)C1 (some centres undefined),8.84
6,Cc1cc(O)c(-c2cc(C(=O)Nc3cccnc3)[nH]n2)cc1C,4.17
7,CCOc1cc(C(=O)Nc2ccc(-c3nc4ccccc4[nH]3)cc2)cc(OCC)c1OCC,1.67
8,CC(C)NCc1cccc(-c2cccc(-c3nc4cc(F)ccc4[nH]3)c2)c1,3.85
9,O=C(/C=C/c1ccc(Cl)c(Cl)c1)N1CCC(CCCN2CCC(c3c[nH]c4ccccc34)CC2)CC1,12.2
10,COc1cc(Nc2nccc(N3CCC(NS(=O)(=O)c4ccc(NC(C)=O)cc4)CC3)n2)cc(OC)c1OC,3.08
11,C=C[C@]1(C)C[C@@H](OC(=O)NC(=O)CCCS(=O)(=O)c2nnc(C)s2)[C@]2(C)[C@H](C)CC[C@]3(CCC(=O)[C@H]32)[C@@H](C)[C@@H]1O,2.14
12,CC(=O)Nc1nc(C(=O)Nc2cccc(-c3ccc(-c4nc5cccc(C)c5[nH]4)cc3)c2)cs1,6.09
13,CN1CC(c2ccccc2)c2cc(O)c(CN3CCCCC3)cc2CC1Cc1ccccc1 (centres undefined),1.53
14,Cc1nc(C)c(-c2ccc(Oc3ccc([S+](C)[O-])cc3)cc2)c(O)c1Br (centres undefined),0.77
15,Cc1ccccc1C1CCN(C2CCC(NC(=O)/C=C/c3c(F)ccc(F)c3F)CC2)CC1 (centres undefined),6.67
16,CCCCCCCCn1c2c(c(=N)c3c1CCC3)CCCC2,16.7
17,CC(CN1CCN(CC(c2ccc(F)cc2)N2CCN(C)CC2)CC1)C(=O)c1ccc(O)cc1 (centres undefined),0.82
18,O=C(O)c1ccc2nc(-c3ccccn3)c(-c3ccccn3)nc2c1,-0
19,OC(CNc1ccnc(Nc2ccc(Cl)cc2)n1)c1cccc(C(F)(F)F)c1 (centres undefined),16.3
20,N#Cc1ccc(C=NNc2nc3ccccc3[nH]2)cc1,0.71
21,Cc1ccc(NC(=O)Nc2cccc(Cl)c2)cc1-c1ccc(C(=O)Nc2ccncc2)cc1,25.4
22,COc1ccccc1C1CCN(C2CCC(NC(=O)/C=C/c3cc(F)c(F)cc3F)CC2)CC1 (centres undefined),4.84
23,CC1(CCc2ccccc2)N=C(Nc2ccc(Cl)cc2)N=C(N)C1c1ccc(Cl)c(Cl)c1 (centres undefined),26.6

row,Structure (SMILES),IFI [%]
1,CNC(=O)c1ccccc1Nc1nc(Nc2ccc(CCN3CCN(C)CC3)cc2)ncc1Cl,15.4
2,COc1cc2ncnc(Nc3ccc(OCc4ccccc4Br)c(OC)c3)c2cc1OC,-0
3,Oc1cccc(CNCCCN(Cc2ccccc2)c2ccccc2)c1,4.29
4,CC(=O)Oc1c(Br)c(C)nc(C)c1-c1ccc(Oc2ccc(OC(F)(F)F)cc2)cc1,4.76
5,CCCCCC(C)N/C(=N/c1ccccc1Br)Nc1ccc(C#N)cc1O (centres undefined),0.76
6,Cc1cc(NC(=O)Nc2ccc3nc(C)oc3c2)c2cc(Cl)ccc2n1,1.43
7,Cc1oc(-c2ccc(Cl)cc2)cc1C(=O)NCCC1CCN(CCCCCNC(=O)/C=C/c2ccc(Cl)c(Cl)c2)CC1,16.6
8,COC(=O)c1ccc(N2CCN(CCCCNC(=O)c3ccc(NC(=O)c4ccc(Cl)cc4)cc3)CC2)c(OC)c1,1.87
9,CCCCn1c(Sc2ccc(C#N)c([N+](=O)[O-])c2)nnc1-c1cc(OC)cc(OC)c1,4.23
10,COc1ccc(-c2nnc(Sc3ccc(C#N)c([N+](=O)[O-])c3)n2CC(C)C)cc1,2.11
11,Cc1cc(C(F)(F)F)n2nc(C(=O)N(Cc3cncn3Cc3cccc(F)c3)CC3CC3)cc2n1,2.67
12,c1cn(CCCNc2ncc(-c3ccsc3)c(-c3nccs3)n2)cn1,2.25
13,Cc1cccc2nc(-c3cccc(-c4ccc(NC(=O)Nc5ccsc5)cc4)c3)[nH]c12,7.84
14,CN(C)C(CNC(=O)c1cc(-c2ccncc2)c(-c2ccc(NC(=O)Nc3cccc(Cl)c3)cc2)o1)c1ccccc1 (centres undefined),8.11
15,O=C(Nc1cccc(-c2cccc(CN3CCCC3)c2)c1)c1cccc(Cl)c1,4.9
16,CN1CCC(Oc2ccc(CN3CC[C@H](NC(=O)c4cccc(C#N)c4)C3)c3ccccc23)C1 (some centres undefined),2.11
17,O=C(Nc1ccc(Cl)c(Cl)c1)Nc1ccc2c(c1)CCNCC2,3.28
18,CN1C(=C2SC(=Nc3ccc4ncccc4c3)N(Cc3ccccc3)C2=O)Sc2ccc(Cl)cc21,2.38
19,CC(C)Sc1nc2c(c(=O)n1CCc1ccccc1)C1(CCCCC1)Cc1ccccc1-2,1.43
20,Cc1ccc2[nH]c(-c3ccc(C=CC(=O)NCc4ccc(Cl)c(Cl)c4)cc3)nc2c1,2.24
21,CNC(=O)COc1cc(C)c(C2CCN(CCCCNC(=O)c3ccc(-c4ccc(C(F)(F)F)cc4)cc3)CC2)cc1C,7.14
22,COc1cc(Cc2cnc(N)nc2N)cc(OCCCOc2ccccc2)c1OC,0.75
23,Cc1cccc2nc(-c3ccc(-c4ccc(CNCc5ccc(S(C)(=O)=O)cc5)cc4)cc3)[nH]c12,6.8

row,Structure (SMILES),IFI [%]
1,O=C(Nc1ccsc1)Nc1cccc(-c2ccc(-c3nc4cc(C(F)(F)F)ccc4[nH]3)cc2)c1,5.88
2,O=C(NCCN1CCCCC1)N1CCCN(c2ncnc3cc(-c4ccccc4)sc23)CC1,1.96
3,Cc1cc(Br)cnc1CCCCNc1cc(=O)c2ccccc2[nH]1,9.09
4,Cc1cccnc1Nc1nc(-c2ccccn2)cs1,10.4
5,O=C(NCc1ccccc1)C1Cc2c([nH]c3ccc(Br)cc23)C2(CCN(Cc3ccccc3)CC2)N1 (centres undefined),6.38
6,CCc1ccc(CN(Cc2ccc(C)cc2)Cc2ccc(NC(C)=O)cc2)cc1,1.43
7,O=C(Cn1c(CCc2cccc(F)c2F)nc(=O)c2ccccc21)N(Cc1ccc(-c2ccc(C(F)(F)F)cc2)cc1)C1CCN(C2=NCCS2)CC1,12.5
8,COc1ccc2nccc([C@@H](O)CN3CCC(NCCOc4ccc(F)cc4[N+](=O)[O-])CC3)c2c1,2.21
9,Fc1ccc2nc(Nc3nc(-c4ccccn4)cs3)sc2c1,9.17
10,COc1ccc2c(c1)ncn2-c1cc(OCc2ccncc2Br)c(C(N)=O)s1,3.81
11,O=C(CSc1nc(-c2ccccc2Cl)ns1)Nc1cccc(F)c1,5.65
12,CC1=C(C(=O)Nc2cc3cn[nH]c3cc2F)C(c2cccc(O)c2F)CC(=O)N1 (centres undefined),0
13,OCCN1CCN(Cc2cccc(-c3cccc(-c4nc5cc(F)ccc5[nH]4)c3)c2)CC1,3.92
14,CC(Cc1ccc(C(=O)OCCOC(=O)c2ccc(CC(C)NCC(O)c3cccc(C(F)(F)F)c3)cc2)cc1)NCC(O)c1cccc(C(F)(F)F)c1 (centres undefined),8.97
15,CCOc1ccccc1CON1C(N)=NC(N)=NC1(C)C,3.73
16,OCCOCCNCc1cccc(C#Cc2cc3ncnc(Nc4ccc(OCc5cccc(F)c5)c(Cl)c4)c3s2)n1,4.38
17,c1cc(-c2ccc(CNCCc3ccncc3)cc2)cc(-c2nc3ccccc3[nH]2)c1,3.85
18,O=C(NC1CC1)c1cnc(N2CCC(Oc3ccc(Cl)cc3)CC2)c(Cl)c1,12
19,CCCCN(CCCC)CCCCNc1c2ccc(Cl)cc2nc2ccc(OC)cc12,6.87
20,COc1ccc(-n2nc(C)c3c2NC(=O)CC3c2ccccc2OCc2ccc(F)cc2)cc1 (centres undefined),10.3
